Consider 22 molecules from publication PMC12136788.

The chains are these.
T1: UNK ZnF1-3 (human, UniProt Q9C0B0 31-174)
T1 sequence: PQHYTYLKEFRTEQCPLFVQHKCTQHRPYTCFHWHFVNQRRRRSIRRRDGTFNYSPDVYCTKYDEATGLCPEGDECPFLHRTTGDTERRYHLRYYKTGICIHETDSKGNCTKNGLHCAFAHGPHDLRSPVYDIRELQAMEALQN

B1: 11812662_11815180_1692_CDS_ENSMUSG00000031511_ENSMUST00000110909|mouse|control|control (ssRNA)
RNA: GGGAGUUCUACAGUCCGACGAUCAAUCCGCUCGAUCAUGCUCCCUGAUAUCUCAAAUGCAUUCCUAUGGUUUUCACUGUCCUCAAGCUUUGUGAUUGUCAUUCCUGUUGUUGGCAGCUUCCCCUGAUAGAUGAAACCACUCAUCAACAGAGGAUUGAGCAUCA
B2: 30809697_30809817_731_ncRNA_ENSMUSG00000026848_ENSMUST00000133544|mouse|control|control (ssRNA)
RNA: GGGAGUUCUACAGUCCGACGAUCACACCAAAGCCAGCCUGGACUACACGAUGAGGCACUGUCUCAGAAAGUAUAAAUAAAGAGAGGCUAGGCAUUUAAUCCCAGCCUUUGGAGGGCAGAGGUAGGUAGAUCUCUGUGAGUUCCCAACAGAGGAUUGAGCAUCA
B3: chr3:95749504:95749505:+_ENSMUSG00000015749_ENSMUST00000165307|mus_hu|FALSE|FALSE (ssRNA)
RNA: GGGAGUUCUACAGUCCGACGAUCUAUUAUAGCAAACUGUAAUUUCAGUUAAUUUAUAAAUAAGGAAUGAAAUGCACCAUACUACACCUGUGUAAAAGUGAUCAUGUUUUAAUUAUGGGCUAAAAAUGACUAAUACAGUAAGCUCAACAGAGGAUUGAGCAUCA
B4: chr12:98992399:98992400:+_ENSG00000075415_ENST00000552981|hu_mus|FALSE|FALSE (ssRNA)
RNA: GGGAGUUCUACAGUCCGACGAUCUUUGGGAACAGCUUCCCUCAAGGUGUUGGCAUAACCAGGCUGGGUUUGAAUUCGAACUUUAGCAGCUUCCAUAGGAGCCAGGGCAAUGUCAGCGAAGAAUUCAGCACUGGCAGAAGAAGCCAACAGAGGAUUGAGCAUCA
B5: chr2:49629323:49629324:+_ENSMUSG00000026764_ENSMUST00000028102|mus_hu|motif|central (ssRNA)
RNA: GGGAGUUCUACAGUCCGACGAUCCAUUAUAUAUUUUAGUUCCCAGACAUAAAUCUUGAUAUCUCAAACAACAUUCUCCGGAUUUACCAAUCCACCAUCCUGCAGAUAAAGAUUAUUCAUAUAAACCAUCUGGCUGUUCUCUUACAACAGAGGAUUGAGCAUCA
B6: chr17:65740002:65740003:+_ENSG00000130935_ENST00000581375|hu_hu|hu_hu_hu_mus_False|58_68 (ssRNA)
RNA: GGGAGUUCUACAGUCCGACGAUCAACAAAUCUUUCUUCCCUGGACGAACAGGAAGAUUCAUAUUAACUUUAUAAAAUGUCUAUGAAGUUAGGUGUGGUGGCCACACCUUUACUCCCAGCACUUUGGGAGGUGGAUCUCUGAGUCAACAGAGGAUUGAGCAUCA
B7: chr18:52893488:52893489:-_ENSG00000196628_ENST00000354452|hu_hu|hu_hu_hu_mus_True|8_18 (ssRNA)
RNA: GGGAGUUCUACAGUCCGACGAUCUAUUUAGACCAUUUCCGCGGAGUUAUGGCAUUUACUCAGUGCUGAUAGGUGGAAAAACUACUUCAACAGGGAUUUUUUUUUUCCUUAAUACAUGCCAAGAAUUGUGUGGCUGUAAAACAGCAACAGAGGAUUGAGCAUCA
B8: chr17:60770872:60770873:+_ENSG00000011028_ENST00000303375|hu_hu|hu_hu_hu_mus_True|28_38 (ssRNA)
RNA: GGGAGUUCUACAGUCCGACGAUCUCUUUAAAAAAAAAAAAAAAAAGACAAACAAUAAUAGCACAUUUCGAGAAUCAAGAACUACAAUAGAGGGUCCAUGUCUUCGAGUCCAUGUUCUCGUCCUGCACUGGGACACGGGGACUGCAACAGAGGAUUGAGCAUCA
B9: 26281015_26281314_5479_CDS_ENSMUSG00000026924_ENSMUST00000091252|mouse|control|control (ssRNA)
RNA: GGGAGUUCUACAGUCCGACGAUCGACAAGUUUUGUAGUUUUCUUUGUAUAAACCCCAAAUCCAACCUGGGCCAUCAGGUAGCAGAAGUGUGCAGCAUCCAACAGGCCUUUUGAUGCUAGAGUAUCACCCAUCGUAGCCAUGGUCAACAGAGGAUUGAGCAUCA
B10: 112566153_112598757_504_CDS_ENSMUSG00000021754_ENSMUST00000109267|mouse|control|control (ssRNA)
RNA: GGGAGUUCUACAGUCCGACGAUCGAUCAUUCUCUCCUCCGGGCGAUCCUCCAUCUUGUGCAGUCCUUUGAGGGUUUCUUUAUUCUCCAUCUCUCGACCGGAGGGGGCCGCUGCAGAGGGCGGCUCGGCCCCCGCGGGGCUCCGCAACAGAGGAUUGAGCAUCA
B11: chrX:119387588:119387589:+_ENSG00000177485_ENST00000326624|hu_hu|FALSE|FALSE (ssRNA)
RNA: GGGAGUUCUACAGUCCGACGAUCUGAGAUGCUUUUAACCUGUGACAAUGGGACACCAAGCUCUGCUAUAAAUUUCACUCCUAAUAACUGCCCUGAUUUAAUUAACUCAUCAAGCAAAUCUGAUCUAACACGAACAAUUUUAGACAACAGAGGAUUGAGCAUCA
B12: chr5:54693298:54693299:+_ENSG00000039123_ENST00000230640|hu_hu|FALSE|FALSE (ssRNA)
RNA: GGGAGUUCUACAGUCCGACGAUCUUUUAAAACACUCUGUCUAUUGUCCACCGGCCGAAGGUCUUUAGGAAUGUAAAGCCUAACACUGCUGAUAGCAGACAGGAGAUGCACCAAAACUGGGACAACCUGCAUCUCUCCUUUCUCCAACAGAGGAUUGAGCAUCA
B13: chr10:98487791:98487792:+_ENSMUSG00000019943_ENSMUST00000020107|mus_hu|FALSE|FALSE (ssRNA)
RNA: GGGAGUUCUACAGUCCGACGAUCUCAUGCAGCACAUUAAUGGCAAAACCAAGACUAGAAACCAGGUCUUGACUCCUAGUCUAAUAUGCUUUCCAGCAUAUCAUGCUACCUCUUUUUUACAGUAUGAUUCACUAUAAAUACCUGCAACAGAGGAUUGAGCAUCA
B14: chr19:29101771:29101772:-_ENSMUSG00000024782_ENSMUST00000025696|mus_mus|FALSE|FALSE (ssRNA)
RNA: GGGAGUUCUACAGUCCGACGAUCAGCAGUAAGGCGCUGUUUAAUGACCUCAAAGGGCACGUUGAGAUUUAUCACUGUGUCUAUCUGAUAAACUUUAUCCAGGGCUUCUGCCUGUGGAAGUGUCCUUGGAAAUCCAUCCAACAGCAACAGAGGAUUGAGCAUCA
B15: chr7:141450121:141450122:+_ENSG00000106028_ENST00000265304|hu_mus|hu_hu_hu_mus_True|18_108 (ssRNA)
RNA: GGGAGUUCUACAGUCCGACGAUCUCAUCCUUUCUACGCCUUUUCUUUUGUCUGGUCACUCAGAAAUAUAAUGUUAUCAGCUAUGAUUGUUGUUGCUUGCCGCCUCACAUUGUUUUUAUCCAUGUAUUCGCCAUAGUCCACUUUCAACAGAGGAUUGAGCAUCA
B16: chr6:53156713:53156714:-_ENSG00000012660_ENST00000304434|hu_hu|motif|central (ssRNA)
RNA: GGGAGUUCUACAGUCCGACGAUCGACAGAGCAGAUAAAUGUGGGUAUAUAAUUGUCCAGAAGAAACCAUCCUUUUACUCGGGUAUCUCGAGGGCCUAGCAAUGCCUUGAAAUAGGUACUAAGUGAUGCAUCAAAAUGUUCCAUCAACAGAGGAUUGAGCAUCA
B17: chr3:120123814:120123815:-_ENSG00000163430_ENST00000295633|hu_hu|FALSE|FALSE (ssRNA)
RNA: GGGAGUUCUACAGUCCGACGAUCCUGUUCCACAAACUUCAGGAAUUCACUGGAGUCCAGGCGAGAAUCACCAUUAUCAAAGUUCUUAAAAUACUUGUCUAGGAUUUCACUGUAGUUGCUGCCUUUAGAGAACCAGCCAUCUGGCAACAGAGGAUUGAGCAUCA
B18: chr2:166753246:166753247:+_ENSMUSG00000002718_ENSMUST00000002790|mus_mus|FALSE|FALSE (ssRNA)
RNA: GGGAGUUCUACAGUCCGACGAUCAAACAGAUUCUUAUAAUGUGGCCUUUCACAAACUGAAGCCAGAAACUGAAUUGCAUUGCUAACCAACAAGUCAUAUUUAACUUCUCGCCCUGUUGUAACGAGUAAGUUCCAGAUAGCUGUCAACAGAGGAUUGAGCAUCA
B19: 32528459_32528579_1835_CDS_ENSMUSG00000014496_ENSMUST00000014640|mouse|control|control (ssRNA)
RNA: GGGAGUUCUACAGUCCGACGAUCUACGAGGAUUGAAGCUCCCUGAUUAAUGAGUACAUCCACACAUUCAACAUGGCCCUUAAAGGCUGCAAGAUCUAAGGGUGUUCUACCACUACUAUUUCUUACAUCAAGAUCUAACAAAGACAACAGAGGAUUGAGCAUCA
B20: chr2:198266515:198266516:-_ENSG00000115524_ENST00000335508|hu_hu|FALSE|FALSE (ssRNA)
RNA: GGGAGUUCUACAGUCCGACGAUCUUUCAUUUCCUCAUCAGGAGACUGGAAUUCUCGAAUAAGGAUUAACAUCACUUCUCUAGUAUAGUAGUUGGCAUAUUCUGCAUCCAUAAGAGGAAUAAGAUACCCAAUAGCCUUCAAGAACAACAGAGGAUUGAGCAUCA
B21: chrX:132781199:132781200:+_ENSMUSG00000042712_ENSMUST00000048687|mus_mus|motif|central (ssRNA)
RNA: GGGAGUUCUACAGUCCGACGAUCAUGAAAAGAAAGCUAGAUCGCAAUGGUAACAUCAGAUAAAAGGGAAAGCAAGCCAAGCGGCAUUAAAUAGGGGUAAGGAUGGCUUCGGUUAGCCUUCCAACGCGUCACUAUAAGUUUGUUCAACAGAGGAUUGAGCAUCA
B22: chr7:141438946:141438947:+_ENSG00000106028_ENST00000265304|hu_mus|hu_hu_hu_mus_True|8_28 (ssRNA)
RNA: GGGAGUUCUACAGUCCGACGAUCGACGAAAUACCUGUAACACAGGUCUUCGAAACAUGGCUUCUGUUUUUCUUACAACCUAAUCUUUAGGCUUUUCCUAAAGGAAAAACCCGAGCAAGAAAAAUGAGCAGGGGAUCAACUACACAACAGAGGAUUGAGCAUCA

The list shows a part of the results.

This test has as its target T1, UNK ZnF1-3. The test can be described thus: nsRBNS (natural sequence RNA bind-n-seq); RBNS binding buffer (assumed for nsRBNS): 25 mM Tris pH 7.5, 150 mM KCl, 3 mM MgCl2, 0.01% Triton X-100, 500 ug/ml BSA, 20 U/ml SUPERase-In, 4 C; UNK is unkempt and MSI1 is Musashi-1; names of the RNAs are library labels; protein concentration not given here; high values mean tight binding.
B1: the binding signal worked out at 0.485 enrichment R.

With B2, the binding signal was 1.46 enrichment R.

Molecule B3 registered a binding signal of 1.41 enrichment R.

Take B4: the binding signal stood at 1.44 enrichment R.

Take B5: the binding signal amounted to 1.08 enrichment R.

B6 returned a binding signal of 0.662 enrichment R.

The molecule B7 registered a binding signal of 1.05 enrichment R.

For B8, the binding signal worked out at 2.38 enrichment R.

B9 returned a binding signal of 1.03 enrichment R.

Take B10: the binding signal was 0.82 enrichment R.

Take B11: the binding signal worked out at 1.01 enrichment R.

The molecule B12 displayed a binding signal of 0.701 enrichment R.

Take B13: the binding signal came out at 0.574 enrichment R.

For the molecule B14, the binding signal amounted to 0.953 enrichment R.

As for B15, the binding signal came out at 0.376 enrichment R.

For the molecule B16, the binding signal was determined as 1.65 enrichment R.

With B17, the binding signal is 1.74 enrichment R.

In turn, B18 registered a binding signal of 0.921 enrichment R.

For the molecule B19, the binding signal was determined as 0.681 enrichment R.

As to B20, the binding signal was determined as 0.959 enrichment R.

For B21, the binding signal came to 1.28 enrichment R.

On to B22, for which the binding signal was 0.475 enrichment R.
